Results on one protein are retold here after patent publication US8288559B2, “Luminogenic compounds and methods to detect cytochrome P450 3A enzymes” (Promega Corporation, priority 2008, dated 2012).

Substrate in the data set: CC(C)OC(OC(C)C)C1CSC(c2nc3ccc(O)cc3s2)=N1
As to the kind of experiment: Concentration dependence of the CYP3A4 reaction with compound 3391. Format: biochemical, human. As to conditions: other: CYP3A4 reaction, substrate inhibition model fit. The method, then: The reactions were performed as described for FIGS. 3-6 except no inhibitors were present in the reactions, and the concentration of compound 3391 varied as indicated in FIG. 7. Signals are expressed as net relative luminescent units (RLU) calculated by subtracting the background RLU values of control reaction mixtures that lack CYP3A4 enzyme from the RLU values of the CYP3A4 reactions. The curve fit was performed with the program GraphPad Prism™.
FIG. 7 illustrates the concentration dependence of the CYP3A4 reaction with compound 3391. […] The data fit well to a substrate inhibition model (R^2=0.99) described by the equation Y=(Vmax·X)/(Km+X+(X·X/Ki)), where X=substrate concentration, Y=activity in relative light units (RLU), Km=[…] and Ki=the substrate inhibition constant.

B1: CYP3A4 (Homo sapiens) (protein)
chain: MALIPDLAMETWLLLAVSLVLLYLYGTHSHGLFKKLGIPGPTPLPFLGNILSYHKGFCMFDMECHKKYGKVWGFYDGQQPVLAITDPDMIKTVLVKECYSVFTNRRPFGPVGFMKSAISIAEDEEWKRLRSLLSPTFTSGKLKEMVPIIAQYGDVLVRNLRREAETGKPVTLKDVFGAYSMDVITSTSFGVNIDSLNNPQDPFVENTKKLLRFDFLDPFFLSITVFPFLIPILEVLNICVFPREVTNFLRKSVKRMKESRLEDTQKHRVDFLQLMIDSQNSKETESHKALSDLELVAQSIIFIFAGYETTSSVLSFIMYELATHPDVQQKLQEEIDAVLPNKAPPTYDTVLQMEYLDMVVNETLRLFPIAMRLERVCKKDVEINGMFIPKGVVVMIPSYALHRDPKYWTEPEKFLPERFSKKNKDNIDPYIYTPFGSGPRNCIGMRFALMNMKLALIRVLQNFSFKPCKETQIPLKLSLGGLLQPEKPVVLKVESRDGTVSGA
notes: purchased Discovery Labware (Supersomes™); host or cells: insect cell expression system
As usually defined, the Km is the concentration of substrate that gives half-maximal velocity. For the protein B1, the Michaelis-Menten constant (Km) is 2 µM.
